± gives the standard deviation of the averaged measurements. This is one part of the list.
tested on: PfAP2-LT AP2 domain (GST-tagged); assay: gcPBM binding intensity (ln(normalized median fluorescence intensity)); higher = stronger DNA binding
Summary of the method: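 An Agilent 4 × 180k array carrying primer-extended double-stranded 36-bp intergenic genomic probes and negative controls received GST-tagged P. falciparum DNA-binding domains expressed in E. coli, about 25 μg on average, for 1 h. The binding buffer contained 1× PBS, 1% milk, 0.2 mg/ml BSA, 0.5% salmon testes DNA and 0.03% Triton X-100. Binding intensity is the top Masliner-normalised natural-log median intensity across replicate spots of either probe orientation, read after Alexa488 anti-GST antibody staining and a 488 nm scan.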

Row | Sequence | gcPBM binding intensity (ln)
1 | TATATTTATTTTTAATGTACATATTTAAGAAAACTA [XGTACX_site4920] | 8.3 ± 0.42
2 | GACTCATTAAGGATTATTCCTAATGATCAAAAGAAC [CACACA_negctrl_site515] | 8.59 ± 0.38
3 | TACATTTTAATATAAGCATGCCTTTAGTTTTTTTCT [TGCATGCA_site829] | 8.83 ± 0.48
4 | AATACAAATATATATGCACACACATATACATACATA [CACACA_site8677] | 9.41 ± 0.35
5 | CAATTTATTATATATGTGCACATATAATTTTACAAA | 8.7 ± 0.37
6 | TAATTATTTTTATTGTTGCACTAGTAAAATTTTAAG [GTGCAC_site9946] | 8.39 ± 0.41
7 | TTTCTTTAACAAGTTAAACACACATACATATATACA [CACACA_site8810] | 8.76 ± 0.45
8 | ATCATTTCTATATAAGCACACACGTGGAATTTTTTT [CACACA_site2786] | 9.06 ± 0.46
9 | AATAAATATAAAAATGCACACACACTAATAAAAAAA [CACACA_site8201] | 9.81 ± 0.28
10 | CACATACAGATATATACACACAAATATAAATACACA [CACACA_site6512] | 9.52 ± 0.4
11 | TTACTTATATGCATAGTGCAAATTTGGTAAATATCT | 8.69 ± 0.33
12 | AAAATAAATATATTATCCACGTTGTATATATATATA [XGTACX_negctrl_site136] | 9.07 ± 0.085
13 | TTTTTTTTTTCTTTTTTTTATTATATTAACGGAATT [GTGCAC_negctrl_site104] | 8.35 ± 0.57
14 | CATAAAAATTGAAGCACACACACAAAAGAAATACAA [CACACA_site1112] | 9.73 ± 0.42
15 | AAAAAGAAATACAAATAATATATATATATATATATT [TGCATGCA_negctrl_site458] | 8.97 ± 0.35
16 | AATAAACAAATAAATAAACACACAATATATGTATAT [CACACA_site9268] | 9.12 ± 0.39
17 | TTGTTTTCACCAAATACACACAAGCATACACCCCAT [CACACA_site2717] | 9.36 ± 0.042
18 | ATACATAAATTTATACGTACATATATAGATACATAA [XGTACX_site675] | 8.86 ± 0.42
19 | TTACATGCTAAAATTTGTACATATATGATAAATATT [XGTACX_site2648] | 8.62 ± 0.42
20 | AAGTAAAATAAGTATACACACATAAATATGTAAATA [CACACA_site6467] | 9.29 ± 0.4
21 | TTTTATTTTCGATGATGTACATTAAATTATACAGTA [XGTACX_site6053] | 8.51 ± 0.51
22 | AAATATTACTCCTCAAGTACACATAAAAAAAAAATA [XGTACX_site2085] | 8.71 ± 0.32
23 | AATATACAAAATAAATAAAATATATATATATATATA [CACACA_negctrl_site216] | 9.46 ± 0.3

Row | Sequence | gcPBM binding intensity (ln)
24 | TAAAAATTTAAGAAAACATGCATCTAACATATATAT [TGCATGCA_site342] | 8.62 ± 0.42
25 | TATTTTTTTTGATATTGTACTTTTTTATTATTTTTT [XGTACX_site566] | 8.76 ± 0.51
26 | AAATTATATATAAAATGTACATATGTAGGTAATTTT [XGTACX_site5047] | 9.35 ± 0.35
27 | GAAAATATATTTAAGATGCACTTTAAAAATGTACTT | 8.57 ± 0.43
28 | AAGTAATCATCATAAAGTACTAAATTATATTGTCAA [XGTACX_site5841] | 8.67 ± 0.37
29 | TCTACATCTGTATATAAACACACAACAAAAATGCTT [CACACA_site9271] | 8.87 ± 0.27
30 | GTATATATGTATGTATGTACTTATAAAGTTGCATAT [XGTACX_site5616] | 8.85 ± 0.47
31 | TATTTATTGTGATACTTATATTATTTCATGATTAAT [CACACA_negctrl_site738] | 8.82 ± 0.4
32 | ACTTTATTATATATTTGTACATATATTTTTAATTTC [XGTACX_site4144] | 9.06 ± 0.52
33 | TTCTTACACAAAAAAATGAAATCAATCAAAAAAAAA [CACACA_negctrl_site869] | 8.41 ± 0.5
34 | TATATATTTCAATAATGTACATATAATATATATATT [XGTACX_site4124] | 8.7 ± 0.38
35 | AATGTGTAGACACGCACACACAAAAAAATATTTATA [CACACA_site7384] | 9.59 ± 0.36
36 | AAAAAAAAAAAAAGTGCACACTTTTAATATAAATAT [CACACA_site3314] | 8.82 ± 0.41
37 | TTTTATATATATTATACACACAAGGAAAAAAAAAAA [CACACA_site3677] | 8.7 ± 0.45
38 | TTTTTTTTTTTCCTTACACACATATTTCATTTTATA [CACACA_site747] | 9.04 ± 0.49
39 | TTTTTATTTTTTAGTAGTACACACTTTTTGAACCTT [XGTACX_site1091] | 8.81 ± 0.64
40 | TATAAAAGGAAACACACACACATATATATATATATA [CACACA_site939] | 10.2 ± 0.32
41 | TGGATATATGTAAAAATTGCAAGAAAGATAAAAGGA [CACACA_negctrl_site64] | 8.88 ± 0.6
42 | ATTATGATATATATATGTACATATATATAATATAAT [XGTACX_site259] | 8.78 ± 0.28
43 | TCTATGAATTAATATGCATGTAACGTATTTATACTT [TGCATGCA_site669] | 8.84 ± 0.36
44 | TAGTATAATATGAACACACACACACCCACAAAAAAA [CACACA_site2009] | 10 ± 0.29
45 | CAAAAAATATATTTTTGTACTTATGTTTTTATTTTG [XGTACX_site5230] | 8.69 ± 0.43
46 | TTATAATATAAAAAATGTACATTAAAAAAAAAGATT [XGTACX_site8950] | 8.76 ± 0.46

Row | Sequence | gcPBM binding intensity (ln)
47 | AAGTATCAAAAATAAAGTACATATTTTGTAGGCAGG [XGTACX_site1463] | 8.94 ± 0.46
48 | TATTTCACACAGTATATATATATATATATATATATA [TGCATGCA_negctrl_site118] | 9.72 ± 0.3
49 | AAAAGATAAAATTATGCACACATACGAATAATTTTA [CACACA_site8497] | 8.92 ± 0.48
50 | AAGGGAAAAAAAAAAGCACACATACGTAAATATATA [CACACA_site7960] | 8.94 ± 0.5
51 | TGTTGGTATGTGAATGCATGCATATAAGTCTATCTG [TGCATGCA_site780] | 8.98 ± 0.34
52 | GTTAATTTTTGTATAGTGCAAAAATATAATAGTATG | 8.64 ± 0.48
53 | TTGAAGTATAATAAAGTGCAAAATTATAATGATCTT [GTGCAC_site9639] | 8.92 ± 0.49
54 | ATCTGACAAAAGTGTACACATATATATATATATATA [CACACA_site4814] | 9.96 ± 0.028
55 | AAATGGGAAATTTCATGTACTCATTTACCCTTATTA [XGTACX_site4740] | 8.56 ± 0.46
56 | CACATAATGAAAAATACACACATGTATATTTATAAA [CACACA_site2736] | 8.99 ± 0.36
57 | AGATATATATATAGGTGTACTGGAATGAAATTGTTT [XGTACX_site8200] | 8.88 ± 0.57
58 | ATGATAATTATTAAGGGTACATAAAAATATATCTAT [XGTACX_site8969] | 8.67 ± 0.47
59 | TATAATTATTTTTTCACACATATGTATTTATATATA [CACACA_site4205] | 8.87 ± 0.44
60 | ATTATTTAACATGTGGACACAAAAATTTAAGGGTTC [CACACA_negctrl_site1269] | 8.73 ± 0.4
61 | TACTAAGAAAAGAACTGTACATAGAATATACCCAAG [XGTACX_site4757] | 8.73 ± 0.44
62 | AATATCAAAAAAAAAAAAAAAAAAAAAAAAAAAAAA [CACACA_negctrl_site288] | 8.16 ± 0.4
63 | AATATATTAAATATTACACACATACATTTAGTGGAA [CACACA_site8609] | 8.78 ± 0.4
64 | TAGTATTATTTTTTTTGTACATATAAATGTAAAATA [XGTACX_site5282] | 8.29 ± 0.49
65 | TTTTTTTAAAATATGAGTACATAATATTGTAAAAAT [XGTACX_site6536] | 8.28 ± 0.35
66 | AAAACATAAATACATACACACATAATATATATTAAG [CACACA_site4239] | 9.23 ± 0.45
67 | TATATAAATATATAATGTACGTTTTAAAAATAATAT [XGTACX_site3881] | 8.6 ± 0.43
68 | TTAATATGAAAACTCTGTACCCAACCTTCTTATGGA [XGTACX_site2126] | 8.62 ± 0.28
69 | TTAATATATAATAAATTTTTTTTTTTTTTTTTTTTT [CACACA_negctrl_site892] | 8.355 ± 0.05

Row | Sequence | gcPBM binding intensity (ln)
70 | ATATATTAATATGTGTGTACTTAACCATTCATATGT [XGTACX_site7395] | 9.1 ± 0.4
71 | ATATAATAAATGTAGGTGCATAAAAATATTTTGTTA [GTGCAC_site9780] | 8.95 ± 0.46
72 | TTTTAATAATATGGATGTACATAAAAATAAATAAAT [XGTACX_site7937] | 8.76 ± 0.46
73 | TTAACCACTAAAAGTACACACATATATACCTATATA [CACACA_site6026] | 8.98 ± 0.38
74 | TACTAAATGATCATATGTACACATGTTTACTTTTTA [XGTACX_site1253] | 8.95 ± 0.35
75 | AATATATATATATATATATATATTTCAATATATAAA [XGTACX_negctrl_site187] | 8.93 ± 0.23
76 | ATACATATACACATTTGTACATATTCCTTTTTATCG [XGTACX_site1731] | 8.98 ± 0.46
77 | TCTTGTTTTAATTTTTATATTATTATTTAGATATAT [CACACA_negctrl_site921] | 8.71 ± 0.44
78 | TTATTTAAAATGAAAAGTACATATTACTTTCTCACA [XGTACX_site5043] | 8.4 ± 0.54
79 | AAAATAAGAAAACAAATGCACACCATTTATATAGAT [CACACA_site1055] | 9.03 ± 0.39
80 | TATATAATAAGAAAATATGTGCGTAGTTCAGCAAAA [XGTACX_negctrl_site304] | 8.85 ± 0.52
81 | GAAAAATATATTCTGGTGCATGAATAAAATCATAAA | 8.53 ± 0.49
82 | AATTGGATAAACCAATTGGATTATAATACGATATAT [CACACA_negctrl_site275] | 8.79 ± 0.49
83 | ATATATATATATATATGTACATAATTAATAGCATAT [XGTACX_site1428] | 9.305 ± 0.035
84 | GAAAAAGATGCGCATACACACAGATGAATAACAAAA [CACACA_site1628] | 9.37 ± 0.43
85 | ATCATATTTATGTTGGTGCATTATACATAAAGTTTA [GTGCAC_site9574] | 8.68 ± 0.37
86 | TGTCTTATTTATATTACACACTATATGAAAAAATAT [CACACA_site6807] | 8.6 ± 0.38
87 | TATTCATCACTTTTTTGTACTTATGGATAAAATTTT [XGTACX_site3349] | 8.71 ± 0.5
88 | ATAATTGTTTCTTTCTCCTTTTTATTTCATTTTAAA [CACACA_negctrl_site964] | 8.68 ± 0.41
89 | CACAAAAAAAATTATACACACACACCCATATATATA [CACACA_site8255] | 9.82 ± 0.11

From the supplement of paper PMC11417369
